# Source: PubChem BioAssay AID485344 (National Center for Advancing Translational Sciences (NCATS), 2010)
# Among all 340,000 compounds or so, about 6,900 (2%) were called active. Rule as the data show it: active = inhibition above about 30%; inactive = below that, where a call was filed. This is a selection; strong and weak results do not stand in their true shares. Entries without a call were filed so in the source.
# Target: D(2) dopamine receptor (Homo sapiens) (UniProt P14416)
# Experiment: HTS Assay for Allosteric Antagonists of the Human D2 Dopamine Receptor: Primary Screen for Antagonists; also: 0% is about no effect
# Settings: HEK293 TREx D2 cells, calcium flux, dopamine EC80; at 10 µM; stronger effect = higher value
# Summary of the method: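 Dopamine at EC80 is the agonist stimulus; test compounds precede it by 180 s. Calcium flux read kinetically in a force-coupled, inducible HEK293 T-REx D2 cell line.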
# UniProt P14416, sequence (P14416 whole entry, looked up): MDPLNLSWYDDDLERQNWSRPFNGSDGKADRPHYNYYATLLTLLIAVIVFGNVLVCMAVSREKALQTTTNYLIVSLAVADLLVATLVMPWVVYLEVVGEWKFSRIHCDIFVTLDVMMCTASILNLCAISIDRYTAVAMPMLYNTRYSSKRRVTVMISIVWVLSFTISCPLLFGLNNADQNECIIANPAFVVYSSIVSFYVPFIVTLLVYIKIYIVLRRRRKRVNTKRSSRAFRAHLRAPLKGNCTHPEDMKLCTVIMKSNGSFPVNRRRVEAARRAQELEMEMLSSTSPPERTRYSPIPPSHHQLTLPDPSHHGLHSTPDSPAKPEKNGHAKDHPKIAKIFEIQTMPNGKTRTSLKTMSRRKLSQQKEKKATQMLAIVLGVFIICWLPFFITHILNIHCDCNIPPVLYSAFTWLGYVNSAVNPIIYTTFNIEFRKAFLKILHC
row,Compound,inhibition
1,O=C(Nc1ccccc1F)c1nc(SCc2ccc(F)cc2)ncc1Cl,-2.86%
2,CCCOc1ccccc1C(=O)N1CCCCC1CCN1CCOCC1 (configuration not stated),5.4%
3,CCN(C(=O)Cn1ncc2c(=O)oc3ccc(C)cc3c21)c1cc(OC)ccc1OC,8.76%
4,Cc1cc(C(F)F)n2nc(C(=O)Nc3cc(Cl)ccc3C)nc2n1,7.61%
5,CCOC(=O)C1CCCN(S(=O)(=O)c2ccc(N3CCCCS3(=O)=O)cc2)C1 (configuration not stated),-4.02%
6,CC1CCc2noc(NC(=O)c3ccccc3[N+](=O)[O-])c2C1 (configuration not stated),8.78%
7,CCc1nnc(NC(=O)CSc2nnc(CNc3ccc(Cl)cc3)o2)s1,active: 49.9%
8,Cc1ccc(-n2nnc(-c3nsc(NC(=O)c4ccccc4)n3)c2C)cc1,-5.97%
9,CCc1cccc(C)c1NS(=O)(=O)c1cc(-c2cc(C)no2)ccc1C,3.02%
10,CCOc1ccc(OCC(=O)NCCS(=O)(=O)N2CCN(c3ccc(F)cc3)CC2)cc1,-10.5%
11,Cc1ccc(-n2nc3ccc(NC(=O)c4oc5ccc(C)cc5c4C)cc3n2)cc1,19.3%
12,O=C(COc1ccc(/C=N/NC(=O)c2ccncc2)cc1)Nc1ccc([N+](=O)[O-])cc1,active: 42.4%
13,O=C(CCC1CCCC1)N1CCc2c([nH]c3ccccc23)C1c1ccc(Cl)cc1 (configuration not stated),13.2%
14,COc1cccc(NC(=O)CSc2nnc(COc3ccc(Cl)cc3)o2)c1,1.38%
15,Cc1nnc2c(N3CCN(c4ccccc4F)CC3)nc3ccccc3n12,6.22%
16,COc1ccc(NC(=O)NCCc2c(C)nn(C)c2C)c(OC)c1,-0.393%
17,CCOC(=O)c1cc(-c2ccc(C)cc2)n(CCC(=O)Nc2nc3c(C)cccc3s2)c1C,1.67%
18,Cc1cc(-n2c(SCC(=O)NCc3ccccc3)nc3ccsc3c2=O)ccc1Cl,19.9%
19,COc1ccc(-c2ccc(-c3noc(-c4ccccc4)n3)c(OC)n2)cc1,active: 31.3%
20,Cc1ccc2c(c1)c(=O)c1ccccc1n2CCCC(=O)Nc1ccc(C)c(F)c1,-2.22%
21,COc1cccc(Cn2c(=O)n(CC3CCC(C(=O)N4CCCCC4)CC3)c(=O)c3sccc32)c1 (configuration not stated),2.44%

row,Compound,inhibition
1,CCCCn1c(SCC(=O)Nc2cccc(OC)c2)nc2c(sc3ccccc32)c1=O,-19.2%
2,COc1ccccc1N1CCN(C(=O)C2CCN(S(=O)(=O)c3c(C)noc3/C=C/c3ccc(C)cc3)CC2)CC1,-17.1%
3,Cc1cccc(Cc2cnc(NC(=O)C3Cc4ccc(C)cc4C(=O)O3)s2)c1 (configuration not stated),13.2%
4,CCOc1ccc(CCNC(=O)c2sc3nc4n(c(=O)c3c2C)CCC4)cc1OCC,active: 30.2%
5,CCOC(=O)N1CCN(Cc2nc3cc(NC(C)=O)ccc3n2C(C)C)CC1,-5.13%
6,CC(C)NC(=O)CCn1c(SCc2c(F)cccc2Cl)nc2c(sc3ccccc32)c1=O,-12.7%
7,COc1cccc(CCNC(=O)Cn2c(-c3cccs3)cc3ccccc32)c1,10%
8,Cc1cc(C)c(-c2cc(C(F)(F)F)no2)c(=O)[nH]1,active: 32.3%
9,COc1ccc(NC(=O)CN2C(=O)C(c3ccc(C(C)(C)C)cc3)=NC2(C)C)cc1Cl,-11.8%
10,Cc1ccc(C)c(N2CCN(C(=O)Nc3cn(CC(C)C)c(=O)c4ccccc34)CC2)c1,-0.227%
11,CCN(CC)CCn1c(NCc2ccc(OC)cc2)nc2ccccc21,active: 74.7%
12,CCCCCC(=O)N1c2ccccc2C(C)(c2ccccc2)CC1(C)C (configuration not stated),-20.8%
13,O=C(c1ccccc1Br)N(Cc1ccco1)C1CCS(=O)(=O)C1 (configuration not stated),-2.87%
14,CC(C)(C)C(=O)NC(=S)NNC(=O)c1sc2ccccc2c1Cl,active: 56.6%
15,O=C(c1ccc2c(c1)N(Cc1ccccc1)C(=O)c1ccccc1S2(=O)=O)N1CCCC1,-20.3%
16,CCC(Sc1nc2c(sc3ccccc32)c(=O)n1CCc1ccccc1)C(=O)N(CC)CC (configuration not stated),10.1%
17,Cc1ccc(C)c(NC(=O)CN2C(=O)c3cccc4cccc2c34)c1,0.111%
18,CCOC(=O)c1ccccc1NC(=O)NC(C)c1c(-n2cccc2)sc(C)c1C (configuration not stated),5.26%
19,Cc1cccc(Cn2ccn(Cc3ccc(Cl)cc3)c(=O)c2=O)c1,-18.1%
20,O=c1c2ccccc2n2c(-c3ccccc3O)nnc2n1Cc1ccc(F)cc1,-2.79%
21,CCOC(=O)C1=NN(c2ccccc2)C(=O)/C1=C\c1ccc(N(C)C)cc1,active: 31.7%

row,Compound,inhibition
1,O=C(CSc1nc(-c2cccc(Cl)c2)nc2cc(=O)[nH]n12)Nc1ccccc1,-3.73%
2,CCN(CC)C(=O)c1sc(NC(=O)c2nc3ncccn3n2)c(C(=O)OC)c1C,0.386%
3,CC(C(=O)NCc1ccccc1Cl)n1ccc2cc(S(=O)(=O)N3CCCCC3)ccc21 (configuration not stated),0.704%
4,CC(=O)c1ccc(N2CCN(c3ccc(NC(=O)c4cccs4)cc3C(=O)O)CC2)cc1,16.6%
5,CC(NC(=O)Cn1cc2c(n1)CCCCC2)c1ccccc1 (configuration not stated),active: 35.3%
6,Cc1ccc(-n2ncc(C(=O)NCCCN3CCCCC3)c2C2CCN(C(=O)OC(C)(C)C)CC2)c(C)c1,-7.46%
7,Cn1c(=O)[nH]c(=O)c2c1nc(N1CCCCCC1)n2CCN1CCCCCC1,active: 39.9%
8,Cc1ccc(NC(=O)CSc2nnc3nc(C)cc(C)n23)cc1,3.88%
9,CCc1cccc(C)c1NC(=O)CCCn1c(=O)c2cccn2c2cccnc21,-0.717%
10,Cc1ccccc1-c1noc(C23CC4CC(CC(C4)C2)C3)n1,active: 75.2%
11,Oc1ccc(Nc2nc3ccccc3n3cnnc23)cc1,4.92%
12,CCOCCCNC(=O)CN1C(=O)COc2ccc(S(=O)(=O)N3CCCCCC3)cc21,2.77%
13,CCOC(=O)c1cnc2c(C)cc(C)cc2c1Nc1cccc(C(=O)O)c1,1.62%
14,Cc1ccc(C2c3c(-c4cc(C)ccc4O)n[nH]c3C(=O)N2Cc2ccco2)cc1 (configuration not stated),3.88%
15,COc1ccccc1N1CCN(CC(O)COc2ccc3c(C)cc(=O)oc3c2)CC1 (configuration not stated),active: 72.1%
16,O=C(Nc1cccc2cccnc12)c1ccccc1[N+](=O)[O-],14.7%
17,Cc1ccc(S(=O)(=O)c2cnc(SCC(=O)Nc3cccc(Cl)c3)nc2N)cc1C,4.76%
18,CCN(CC)C(=O)Cn1cc(SCC(=O)Nc2cccc(F)c2)c2ccccc21,-2.64%
19,COc1ccc(C(CC(=O)O)NC(=O)c2cc3ccccc3oc2=O)cc1OC (configuration not stated),6.36%
20,Cc1ncc(CO)c2c1Oc1nc(-c3ccc(Cl)cc3)nc(SCC(=O)N3CCCCC3)c1C2,19.5%
